Measurements taken from publication PMC8167812 (Cell reports, 2021).

Target: Clr4 SET domain (residue 190–490) (fission yeast, UniProt O60016 190-490)
Assay: BLI

B1: Histone H3 tail peptide H3K9MK14C with a C-terminal biotinylated lysine (peptide)
peptide: not shown
modifications: C-terminal biotinylated lysine
- Kd: 1.42 µM
- koff: 0.0723 s⁻¹
- kon: 50800 M⁻¹ s⁻¹

B2: Histone H3 tail peptide with K9M containing a ubiquitin mimic at H3K14 (H3K9MK14C peptide cross-linked to Ub-G76C) (complex)
chain 1: not shown
chain 2: not shown
- koff: 0.0405 s⁻¹
